Experimental data taken from patent US20080287445A1, “Prokineticin 2 receptor antagonists” (priority 2005, published 2008).

Tested on: rat ileum mucosa

B1: PK1: Recombinant human prokineticin-1 expressed in HEK 293 cells, FLAG epitope cleaved; preparation holds full-length and a four C-terminal residue truncated product (protein, UniProt P58294 20-105, looked up)
Prokineticin-1: AVITGACERDVQCGAGTCCAISLWLRGLRMCTPLGREGEECHPGSHKVPFFRKRKHHTCPCLPNLLCSRFPDGRYRCSMDLKNINF
modifications: mixture with C-terminally truncated product
  effect on tissue conductance (G): no significant effect
read-out: EC50 of PK1-evoked increases in Isc, cumulative concentration-response, basolateral addition
  EC50: ~8.2 nM
